The test concerns the target GTPase KRas (Homo sapiens) (UniProt P01116). Kind of test: Covalent labelling of cysteine mutants by fragments, read by mass spectrometry (AID 2202238). Set-up: protein at 5 µM with 500 µM competing thiol for 1.5 h. To be noted: KRAS G12D cysteine mutants, disulfide tethering, MALDI-TOF labeling, stronger effect = higher value, fragment at 500 µM.
The mark [1] stands for this setting: measured here: G75C mutant labeling.
Setting [2] is: measured here: H94C mutant labeling.
[3] abbreviates: measured here: I36C mutant labeling.
Setting [4] is: measured here: L120C mutant labeling.
[5] abbreviates: measured here: M67C mutant labeling.
Where [6] appears, read: measured here: M72C mutant labeling.
Where [7] appears, read: measured here: N86C mutant labeling.
Where [8] appears, read: measured here: P121C mutant labeling.
The mark [9] stands for this setting: measured here: S122C mutant labeling.
Setting [10] is: measured here: S136C mutant labeling.
The mark [11] stands for this setting: measured here: G60C mutant labeling.
Setting [12] is: measured here: N26C mutant labeling.

This is one part of the list. Further columns of the screen follow, without active or inactive calls.

In PubChem BioAssay AID2202238 (Ras Initiative Chemistry Research Team, Frederick National …, 2025) one finds percent labeling data, which are given here for 15 compounds.

Sequence of UniProt P01116 (P01116 whole entry, looked up, the tested form may be a part): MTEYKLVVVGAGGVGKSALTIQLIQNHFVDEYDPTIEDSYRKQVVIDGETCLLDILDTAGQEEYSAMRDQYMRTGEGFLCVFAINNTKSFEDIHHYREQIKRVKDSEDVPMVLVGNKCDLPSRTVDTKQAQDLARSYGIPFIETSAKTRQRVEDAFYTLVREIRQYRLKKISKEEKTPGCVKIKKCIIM

Consider `Cc1cc(NC(=O)CCS)cnc1N1CCCCC1C` (centres undefined), for which the percent labeling by setting is: under setting [1], 15.6%; under setting [2], 17.7%; under setting [3], 20.3%; under setting [4], 18.6%; under setting [5], 18.1%; under setting [6], 34%. In addition, the percent labeling is, setting by setting: under setting [7], 17.5%; under setting [8], 13.4%; under setting [9], 14.3%; under setting [10], 35.9%.
In the case of `Cn1ncc2nc(C(F)(F)F)c(C(=O)NCCS)cc21`, the percent labeling was determined as 67.3% under setting [11]; 23.8% under setting [1]; 36.2% under setting [2]; 32.7% under setting [3]; 32.9% under setting [4]; 38.5% under setting [5]. Further, the percent labeling is, setting by setting: under setting [6], 45.8%; under setting [12], 46.1%; under setting [7], 37.7%; under setting [8], 32.4%; under setting [9], 29.4%; under setting [10], 51%.
Turning to `O=C(NCCS)c1cc2c(Br)c(F)ccc2[nH]1`, the percent labeling was 17% under setting [11]; 15.7% under setting [1]; 12.8% under setting [2]; 12.6% under setting [3]; 10.4% under setting [4]; 9% under setting [5]. Moreover, the percent labeling reads like this: under setting [6], 18.6%; under setting [12], 29.3%; under setting [7], 15.3%; under setting [8], 9.9%; under setting [9], 6.7%; under setting [10], 9.5%.
Regarding `Cn1cc(NC(=O)CCS)c(-c2ccccn2)n1`, the percent labeling is, setting by setting: under setting [1], 22.3%; under setting [2], 24%; under setting [3], 15.7%; under setting [4], 19.7%; under setting [5], 29.3%; under setting [6], 36.6%. Also, the percent labeling is, setting by setting: under setting [7], 11%; under setting [8], 21.3%; under setting [9], 23.3%; under setting [10], 37.1%.
With `O=C(NCCS)c1csc(-c2cc3ccccc3o2)n1`, the percent labeling under setting [11] is 31.8%; the percent labeling under setting [1] was 19.6%; the percent labeling under setting [2] was determined as 14.3%; the percent labeling under setting [3] worked out at 10.4%; the percent labeling under setting [4] amounted to 15.6%; the percent labeling under setting [5] came to 10.5%. Further, the percent labeling is 38.9% under setting [6]; 28.1% under setting [12]; 13.5% under setting [7]; 12.6% under setting [8]; 8.3% under setting [9]; 14.4% under setting [10].
With `Cn1nnc(CN2CCC[C@@H]2C(=O)NCCS)n1`, the percent labeling under setting [11] was 25%; the percent labeling under setting [1] is 10.5%; the percent labeling under setting [2] was determined as 36.7%; the percent labeling under setting [3] worked out at 16.7%; the percent labeling under setting [4] amounted to 31.9%; the percent labeling under setting [5] came to 30.4%. Moreover, the percent labeling was determined as 11.2% under setting [6]; 32% under setting [12]; 28.1% under setting [7]; 34.5% under setting [8]; 31.7% under setting [9]; 42% under setting [10].
With `O=C(NCCS)c1cnn(-c2ccc(Cl)cc2Cl)c1`, the percent labeling by setting is: under setting [11], 29.4%; under setting [1], 13.4%; under setting [2], 12.2%; under setting [3], 11%; under setting [4], 11.1%; under setting [5], 11.3%. Besides, the percent labeling was found to be 35.1% under setting [6]; 27.3% under setting [12]; 9.5% under setting [7]; 13.7% under setting [8]; 7.2% under setting [9]; 16.6% under setting [10].
In the case of `Cc1ccc(S(=O)(=O)N2CCC(C(=O)NCCS)CC2)cc1Cl`, the percent labeling by setting is: under setting [11], 9.6%; under setting [1], 6.1%; under setting [2], 5.4%; under setting [3], 4.5%; under setting [4], 6.4%; under setting [5], 10.4%. Further, the percent labeling is, setting by setting: under setting [6], 10.5%; under setting [12], 20.4%; under setting [7], 5.1%; under setting [8], 5.3%; under setting [9], 3.6%; under setting [10], 7%.
Consider `Cc1noc(CN2CCN(C(=O)CCS)CC2)n1`, for which the percent labeling was found to be 8.3% under setting [1]; 26.7% under setting [2]; 31.8% under setting [3]; 26% under setting [4]; 34.8% under setting [5]; 12.3% under setting [6]. Moreover, the percent labeling is, setting by setting: under setting [7], 24.2%; under setting [8], 36.2%; under setting [9], 33.5%; under setting [10], 48.9%.
Consider `O=C(CCC(=O)N1CCOc2ccccc21)NCCS`, for which the percent labeling under setting [11] stood at 50.4%; the percent labeling under setting [1] came to 16%; the percent labeling under setting [2] came to 37.3%; the percent labeling under setting [3] is 24.4%; the percent labeling under setting [4] came to 48.9%; the percent labeling under setting [5] was 44.8%. The percent labeling amounted to 32.9% under setting [6]; 36% under setting [12]; 26.4% under setting [7]; 38.8% under setting [8]; 31.9% under setting [9]; 50% under setting [10].
On to `O=C(CCS)Nc1cccc(-c2ccccc2C(F)(F)F)c1F`, for which the percent labeling under setting [1] came to 19.1%; the percent labeling under setting [2] is 16.7%; the percent labeling under setting [3] was determined as 18.8%; the percent labeling under setting [4] was 17.8%; the percent labeling under setting [5] is 17.6%; the percent labeling under setting [6] stood at 39.1%. Also, the percent labeling came to 24.7% under setting [7], 17.1% under setting [8], 7.3% under setting [9] and 25% under setting [10].
In the case of `CC(C)(C)OC(=O)N1CCC2(CC1)CCN2C(=O)CCS`, the percent labeling runs as follows: under setting [1], 12.3%; under setting [2], 28.2%; under setting [3], 26.6%; under setting [4], 20.7%; under setting [5], 30.8%; under setting [6], 17.2%. For the same compound, the percent labeling is, setting by setting: under setting [7], 15.5%; under setting [8], 26.8%; under setting [9], 22.6%; under setting [10], 42.8%.
With `Cn1ccc(NC(=O)CNC(=O)CCS)n1`, the percent labeling is 9% under setting [1]; 18.1% under setting [2]; 33.9% under setting [3]; 34.7% under setting [4]; 20% under setting [5]; 12.4% under setting [6]. Besides, the percent labeling runs as follows: under setting [7], 31.8%; under setting [8], 32.4%; under setting [9], 30.7%; under setting [10], 39.9%.
Take `O=C(CCS)Nc1ccc(SCc2ccccc2)c(Br)c1`: the percent labeling is, setting by setting: under setting [1], 10.7%; under setting [2], 8.5%; under setting [3], 20.9%; under setting [4], 6.8%; under setting [5], 22.7%; under setting [6], 43.8%. Besides, the percent labeling is, setting by setting: under setting [7], 11.3%; under setting [8], 8.8%; under setting [9], 4.2%; under setting [10], 32.5%.
For the compound `O=C(CCS)NCCn1ccc2c(Br)cccc21`, the percent labeling under setting [1] was determined as 16.6%; the percent labeling under setting [2] is 29.2%; the percent labeling under setting [3] was 24.1%; the percent labeling under setting [4] amounted to 16.5%; the percent labeling under setting [5] was found to be 22.3%; the percent labeling under setting [6] was found to be 47.1%. Also, the percent labeling by setting is: under setting [7], 25.8%; under setting [8], 21.8%; under setting [9], 12.6%; under setting [10], 28.2%.
